Certain results were filed several times, with different values. This is not the full list of results. The source may hold further records. The records of an entry are repeats (runs, samples, wells, individuals or studies). Marks such as (2×) count equal records among those shown.
Tested on: PC-3 multi-cell spheroids, viability
Assay: Anticancer human tumor PC-3 cell line growth inhibition [IpAb];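 note: spheroids exposed to compounds for 7 days before readout; 100% = DMSO vehicle control wells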
Details: stronger effect = lower value
From the text: Combinatorial screen of targeted agents with ipatasertib and abemaciclib in multi-cell type tumor spheroids
A high-throughput screen of multi-cell type tumor spheroids was designed to identify active combinations of targeted small molecules and ipatasertib or abemaciclib. Complex spheroids include a stromal component modeled by human endothelial cells (HUVEC) and fibroblasts modeled by human mesenchymal stem cells (MSCs). The concentration ranges selected for each drug and investigational agent were based upon clinically achievable concentrations if the clinical Cmax of the agent was known.
Compounds. The drugs and investigational agents: ipatasertib (NSC767898), abemaciclib(NSC768073), selumetinib (NSC741078), trametinib (758246), adavosertib (NSC754352), everolimus (NSC733504), sapanisertib (NSC764658), vemurafenib (NSC761431), venetoclax (NSC766270), copanlisib (NSC809693), apelisib (NSC765974), palbociblib (NSC758247), vemurafenib (NSC761431), dabrafenib (NSC764134), ravoxertinib (NSC781343), BMS-387032 (NSC767048), sotorasib (NSC818433), talazoparib (NSC767125) and afursertib (NSC778305), were obtained from the National Cancer Institute (NCI) Developmental Therapeutics Program Chemical Repository. The FDA-approved anticancer drug set is available from the NCI Developmental Therapeutics Program. […] The stock solutions were prepared in dimethyl sulfoxide (DMSO, Sigma-Aldrich, St. Louis, MO, cat. D2650) at 800-fold the tested concentration and stored at -70 degrees C prior to their use. All drugs and investigational agents were tested over a range starting from a high concentration at or near the clinical Cmax and decreasing in half-log increments. If the clinical Cmax for an agent had not been determined, the highest concentration tested was 10 microM.
NCI60 Cell Culture. NCI60 cell lines were obtained from the NCI Developmental Therapeutics Program Tumor Repository. For each lot of cells, the Repository performed Applied Biosystems AmpFLSTR Identifiler testing with PCR amplification to confirm consistency with the published Identifier STR profile for each cell line. Cells were kept in continuous culture for no more than 20 passages. The optimal seeding densities for each of the cell lines at each time point assessed were determined prior to performing the concentration response studies. Briefly, the NCI60 human tumor lines were grown as monolayers in RPMI 1640 medium supplemented with 10% FBS and 2 mmol/L L-glutamine.
An additional 9 lines were from the NCI60 cell line panel including MDA-MB-231 breast carcinoma, MDA-MB-468 breast carcinoma, MCF7 breast carcinoma, Hs578T breast carcinoma, MALME-3M melanoma, SK-MEL-2 melanoma, SK-OV-3 ovarian carcinoma, DU-145 prostate carcinoma, PC-3 prostate carcinoma, all cell lines along with major genetic alterations are listed on Table 2. Pooled donor human umbilical vein endothelial cells (HUVEC, Lonza, cat. CC-2519) and human mesenchymal stem cells (hMSC, Lonza, cat. PT-2501) were purchased from Lonza (Walkersville, MD).
PDMR cell lines were grown in complete medium (DC medium): Dulbecco's modified Eagle's medium (DMEM)/F12 supplemented with 5% fetal bovine serum (FBS), 2 mM L-glutamine, 100 U/mL penicillin and 100 µg/ml streptomycin, 0.4 µg/ml hydrocortisone, 10 ng/ml epidermal growth factor (EGF) recombinant human protein, 24 µg/mL adenine, and 0.1 mg/mL primocin. During culture from frozen stock vials, PDMR cells were cultured in the same medium containing 10 µM Y-27632 (see Table 3). […]

CCN1CCN(Cc2ccc(Nc3ncc(F)c(-c4cc(F)c5nc(C)n(C(C)C)c5c4)n3)nc2)CC1
viability, T/C (compound alone 0.01 µM): 94.9, 83.2, 87.2, 101, 97.5, 92.9, 73.9, 78.4, 74.6, 90.5, 89.8, 81.5, 82.5%
viability, T/C (compound alone 0.0316 µM): 69.9, 65.2, 67.4, 65.6, 59.3, 102, 54.7, 54.1, 51.7, 63.9, 58.4, 57.2, 59.2%
viability, T/C (compound alone 0.1 µM): 52.4 (2×), 53, 60.2, 56.1, 56, 133, 51.7, 53.3, 59, 55, 51, 58.2%
viability, T/C (compound alone 0.316 µM): 55.8, 56.9, 50.2, 65.6, 61.3, 159, 59.1, 57.3, 57.8, 66.3, 63.8, 62.5, 53.7%
viability, T/C (compound alone 1 µM): 57.7, 54.1, 63.5, 62, 61.6, 148, 57.3, 53.1, 48.9, 61.5, 54.5, 56.9, 45.6%

From PubChem BioAssay AID2060327 (Molecular Pharmacology Branch, DTP, NCI, 2025)
